From the supplement of paper PMC3334620
In all, about 33,000 sequences were measured (“E-score (-0.5 to 0.5)”: median about -0.012, highest 2% from about 0.27 on). The list shows a part of the results.

target: T1, Vhr1 (UniProt P40522); test: PBM E-score (8-mer binding enrichment) (E-score (-0.5 to 0.5)); higher = stronger / more preferred TF binding; most listed sequences are background and not binding sites; conditions: protein concentration: 200 nM; construct: GST-full length
T1 sequence: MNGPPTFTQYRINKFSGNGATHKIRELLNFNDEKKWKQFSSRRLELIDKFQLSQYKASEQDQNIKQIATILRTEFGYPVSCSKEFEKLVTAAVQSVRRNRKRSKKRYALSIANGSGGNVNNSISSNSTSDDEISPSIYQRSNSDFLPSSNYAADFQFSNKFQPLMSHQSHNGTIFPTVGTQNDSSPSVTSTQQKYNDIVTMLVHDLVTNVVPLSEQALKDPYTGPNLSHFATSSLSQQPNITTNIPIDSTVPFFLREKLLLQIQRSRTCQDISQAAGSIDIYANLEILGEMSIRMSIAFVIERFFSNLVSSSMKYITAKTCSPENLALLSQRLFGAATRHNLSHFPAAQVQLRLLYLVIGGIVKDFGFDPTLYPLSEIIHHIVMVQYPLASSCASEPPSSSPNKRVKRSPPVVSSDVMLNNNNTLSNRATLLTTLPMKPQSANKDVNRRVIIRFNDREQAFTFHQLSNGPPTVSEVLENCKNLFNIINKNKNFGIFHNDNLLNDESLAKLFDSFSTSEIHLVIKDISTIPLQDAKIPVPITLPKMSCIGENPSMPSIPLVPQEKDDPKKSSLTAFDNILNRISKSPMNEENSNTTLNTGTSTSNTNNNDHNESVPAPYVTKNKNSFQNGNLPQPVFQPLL
Procedure, shortened: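 Bound GST-tagged yeast transcription factors, applied at about 100-200 nM to double-stranded universal all-10-mer Agilent arrays, were detected with fluorescent anti-GST. Scans were normalised with masliner. A modified Wilcoxon-Mann-Whitney statistic, the E-score, was assigned to each ungapped eight-base word pooled with its reverse complement by the Universal PBM Analysis Suite.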

| Sequence | PBM E-score |
| --- | --- |
| AGATCGCT | -0.0841 |
| ATTCAAAT | -0.112 |
| CTCGCTAA | 0.127 |
| AGGCAAAT | -0.111 |
| AAAAACAG | -0.171 |
| TCGACCCA | 0.166 |
| ATGCATGC | -0.0419 |
| AACGGAAC | -0.00826 |
| AGCAATAA | -0.0386 |
| GACTTGCA | 0.00767 |
| AGACACCA | 0.137 |
| ACCCCGCA | -0.0917 |
| CCTGTTGA | -0.18 |
| AGAGTACA | -0.17 |
| AGTTGTAT | 0.209 |
| ATTACGGG | 0.104 |
| GAGCGTTA | -0.0236 |
| ATTGGCAC | 0.148 |
| CTACGGAC | -0.121 |
| GATACGGA | 0.0144 |
| TAAGATCA | 0.0196 |
| GCAAGCCA | 0.0396 |
| GAATATGC | -0.0476 |
| AGAACTAT | 0.0364 |
| ACCCGAGC | 0.0234 |

| Sequence | PBM E-score |
| --- | --- |
| TGTATCAA | 0.269 |
| ATTCTCTG | -0.0449 |
| GAGCTATA | -0.158 |
| AGTTATCA | -0.161 |
| CGCCTCCG | 0.0324 |
| ACAAACTG | -0.181 |
| AGGCGAGG | 0.0443 |
| CGGGAAGA | 0.177 |
| ATGTTATC | 0.105 |
| AGTGCTGG | 0.13 |
| GCCAGACA | 0.0199 |
| GGTGTCAC | 0.264 |
| ATACCGGG | 0.228 |
| CTACTGAC | 0.0908 |
| CCCACCTC | -0.0129 |
| GAGACAGC | 0.0884 |
| AGCTTACG | -0.105 |
| CGAAGTCC | -0.153 |
| ATATACGC | -0.0157 |
| TGCCCGCA | 0.0964 |
| AATGCTGA | 0.027 |
| GCCGCTGA | 0.034 |
| GACCCTCA | -0.276 |
| GTATAAGA | 0.0885 |
| CGCCTAAG | -0.192 |

| Sequence | PBM E-score |
| --- | --- |
| ATCGTGCG | 0.1 |
| CGAACTGA | -0.0599 |
| CGGAGACG | 0.193 |
| CGCCACTA | -0.0573 |
| TCCACAGA | 0.1 |
| GAACTCCA | -0.13 |
| GCAGATAA | -0.00576 |
| AATTATGA | -0.00556 |
| CCAAGTCG | 0.00863 |
| GAAGTTGA | 0.0521 |
| AAGGGTAT | 0.0534 |
| CGACCGAA | -0.0831 |
| CAGAGAAG | 0.0396 |
| GGAATAGA | -0.0365 |
| GCCCGTAA | 0.0148 |
| AGATCTAA | -0.0895 |
| AGAGTGCG | 0.119 |
| AGAGGAAC | -0.0678 |
| CTCCTCCA | 0.0762 |
| ATGAATAG | -0.0504 |
| AGCGTTAG | -0.164 |
| CCCTTAGG | -0.173 |
| GTGAAAAA | -0.0605 |
| CAATCGAC | -0.0834 |
| ACGAGAGT | 0.101 |

| Sequence | PBM E-score |
| --- | --- |
| GTTATTTA | -0.175 |
| AGCTTAGC | -0.175 |
| AAAGCTGA | -0.151 |
| AGGTTTCC | -0.136 |
| AGGCTGAC | 0.153 |
| CCATAATC | 0.237 |
| ATGCCGTG | 0.0498 |
| AAGCTAGC | -0.233 |
| ATGAACAG | -0.0314 |
| CAGGCGTC | -0.084 |
| ACTGACAG | 0.0657 |
| AACGCCAC | -0.091 |
| CATGATTA | 0.369 |
| CAAAGACG | -0.157 |
| ACTACCCG | 0.0556 |
| CTCATCGA | 0.0686 |
| AAAGCAGC | -0.146 |
| GCCGCCGC | -0.0973 |
| ATGCCGAC | 0.147 |
| ATGGGGAC | -0.00351 |
| ACCTCTCA | -0.0635 |
| CTACTAAC | 0.167 |
| ACACAGAT | -0.00225 |
| CCCAGCGA | 0.126 |
| GGCCAACA | -0.0257 |

| Sequence | PBM E-score |
| --- | --- |
| CAGCAATG | -0.0464 |
| AGACGGTG | -0.246 |
| CAAGACAG | 0.0217 |
| ACGAGTTC | 0.0694 |
| CTACCTTC | -0.128 |
| CAATGCCC | -0.0915 |
| CACCGATC | 0.0664 |
| AGGTGAAA | -0.0873 |
| ACTCACAA | 0.286 |
| AATTCATG | 0.214 |
| CCACAAGG | 0.0586 |
| GCGGATCC | 0.157 |
| CCACTAGC | -0.152 |
| CCATAGAG | -0.216 |
| GCCGTTCA | -0.178 |
| GAGACCTA | 0.0908 |
| ACCACAAT | 0.174 |
| GAACGCGC | 0.0952 |
| GCGACGAC | -0.114 |
| AGAGTGGA | -0.0838 |
| GCCTTCAA | -0.135 |
| ATATCGCC | 0.0318 |
| AGTGCATG | -0.0471 |
| AACACACT | 0.205 |
| CCTAGCGC | -0.166 |

| Sequence | PBM E-score |
| --- | --- |
| CAACCGTC | -0.0573 |
| ACTTTCAC | -0.0162 |
| ATTATACC | 0.112 |
| TAGCCAAA | -0.0112 |
| ATATTGCA | 0.123 |
| TGACCCAA | 0.214 |
| CTCTAGTC | -0.104 |
| AATAGTAG | 0.0438 |
| AAAGTACG | 0.105 |
| GTCATACA | 0.19 |
| GTTTGATA | 0.0594 |
| CGCAATTA | -0.0437 |
| ACAAAGCT | -0.0545 |
| GGCCCTCA | -0.186 |
| AGCCCTGG | -0.114 |
| GCCACTAC | 0.0783 |
| ACACATTA | 0.189 |
| ACGCATAA | -0.0919 |
| AAACTGGC | 0.0109 |
| ATCAGAAC | 0.0119 |
| AGGGGGTA | -0.139 |
| AGCTGGCA | -0.00516 |
| CCTTGCGA | -0.0209 |
| GGCACGTA | -0.0165 |
| AGTCGGAG | 0.233 |

| Sequence | PBM E-score |
| --- | --- |
| GCAACGGC | -0.0884 |
| ATACGGGG | -0.0292 |
| CTTTCGAC | -0.165 |
| CTCATGAC | 0.326 |
| AGACGGCG | 0.0504 |
| CCAAGCAG | -0.0787 |
| AGGCGTGG | -0.3 |
| AACCAGTC | 0.0251 |
| AATCTGTG | 0.0413 |
| AACTAGCG | 0.0205 |
| ACACGTCA | 0.175 |
| ATTCCTCA | 0.0353 |
| CCGAAACA | 0.104 |
| CTTGACTA | 0.131 |
| AGCTGGAA | -0.133 |
| AGTCTTTA | -0.341 |
| AGTATCAT | 0.182 |
| CTCGCGAC | 0.242 |
| CCAAGACA | -0.0173 |
| TACGGGCA | 0.0459 |
| ATAGATAG | 0.11 |
| ACGCACAT | 0.0403 |
